The source of these data is US11672826 (dated 2023).

One assay addresses TGFβ1 (R&D systems) (UniProt P01137 partial chain). The assay can be described thus: cell-based or functional assay.
Assay [1] concerns the target T1, TGFβRII/IL-15RαSu fusion protein.
T1 construct: also called TGFRs; TGFβR/IL-15RαSu
T1 chain: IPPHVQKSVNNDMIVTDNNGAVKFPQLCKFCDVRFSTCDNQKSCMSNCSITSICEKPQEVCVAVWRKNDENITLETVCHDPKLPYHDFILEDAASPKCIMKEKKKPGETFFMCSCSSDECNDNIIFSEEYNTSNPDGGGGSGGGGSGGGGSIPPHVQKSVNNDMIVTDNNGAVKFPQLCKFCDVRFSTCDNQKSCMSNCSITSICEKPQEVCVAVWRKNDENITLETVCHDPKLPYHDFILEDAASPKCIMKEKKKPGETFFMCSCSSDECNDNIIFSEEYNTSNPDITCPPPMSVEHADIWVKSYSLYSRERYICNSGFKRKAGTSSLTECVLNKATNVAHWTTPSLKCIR
The assay is described as follows: co-expression in CHO-K1 cells.

Assay [2] deals with T2, TGFR/IL-15RαSu/IL-21 fusion protein.
T2 construct: also called TGFRs21
The assay can be described thus: co-expression in CHO-K1 cells.

In assay [3] the target is T3, TGFR/IL-15RαSu/CD137L fusion protein.
T3 construct: also called TGFRs137L
T3 chain: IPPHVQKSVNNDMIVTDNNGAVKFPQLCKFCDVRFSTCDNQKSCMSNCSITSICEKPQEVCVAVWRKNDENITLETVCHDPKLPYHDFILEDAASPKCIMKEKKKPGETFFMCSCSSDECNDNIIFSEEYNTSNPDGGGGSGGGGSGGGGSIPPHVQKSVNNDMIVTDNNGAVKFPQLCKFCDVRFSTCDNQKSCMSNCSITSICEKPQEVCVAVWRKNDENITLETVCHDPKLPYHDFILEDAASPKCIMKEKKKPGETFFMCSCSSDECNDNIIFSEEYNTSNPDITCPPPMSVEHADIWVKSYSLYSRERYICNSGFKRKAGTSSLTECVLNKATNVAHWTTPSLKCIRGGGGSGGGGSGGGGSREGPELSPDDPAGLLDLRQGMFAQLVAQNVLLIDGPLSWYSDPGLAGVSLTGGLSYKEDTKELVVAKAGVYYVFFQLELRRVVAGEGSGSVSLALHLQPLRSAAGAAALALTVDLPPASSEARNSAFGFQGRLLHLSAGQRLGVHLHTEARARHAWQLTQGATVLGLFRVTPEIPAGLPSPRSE
The assay is described as follows: co-expression in CHO-K1 cells.

Assay [4] concerns the target T4, anti-CD16scFv/IL-15RαSu/IL-21 fusion protein.
T4 construct: also called 16s21
The assay can be described thus: co-expression in CHO-K1 cells.

For assay [5], the target named is T5, TGFR/IL-15RαSu/anti-CD16scFv fusion protein.
T5 construct: also called TGFRs16
The assay can be described thus: co-expression in CHO-K1 cells.

The next assay addresses T6, human CD16b on CHO cells (human, UniProt O75015 17-200).
T6 construct: also called CHO cells expressing human CD16b
T6 chain: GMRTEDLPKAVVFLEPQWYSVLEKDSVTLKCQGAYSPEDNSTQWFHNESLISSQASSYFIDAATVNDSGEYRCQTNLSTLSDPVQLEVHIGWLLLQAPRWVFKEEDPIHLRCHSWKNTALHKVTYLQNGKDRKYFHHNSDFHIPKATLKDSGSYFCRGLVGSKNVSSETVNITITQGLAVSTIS
The assay is described as follows: flow cytometry on CHO cells stably expressing human CD16b; biotinylated anti-human tissue factor and PE streptavidin.

Assay [6] deals with T7, IL-7/IL-15RαSu fusion protein.
T7 construct: also called 7s
T7 chain: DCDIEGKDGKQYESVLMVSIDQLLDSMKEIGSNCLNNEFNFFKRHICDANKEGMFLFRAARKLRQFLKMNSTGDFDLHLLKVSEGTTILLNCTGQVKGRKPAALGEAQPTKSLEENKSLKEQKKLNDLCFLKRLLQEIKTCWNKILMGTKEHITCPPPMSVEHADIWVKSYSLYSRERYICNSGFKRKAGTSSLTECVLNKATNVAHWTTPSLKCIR
The assay is described as follows: co-expression in CHO-K1 cells.

Assay [7] deals with T8, IL-21/IL-15RαSu/CD137L (short version) fusion protein.
T8 construct: also called 21s137L (short version)
The assay can be described thus: co-expression in CHO-K1 cells.

Assay [8] addresses T1, TGFβRII/IL-15RαSu fusion protein. The assay can be described thus: co-expression in CHO cells; both chains shown in the purified complex by sandwich ELISA. (In general: In an ELISA, binding on a coated surface is turned into a signal by an enzyme label.)
Assay [9] deals with T9, IL-21/IL-15RαSu fusion protein.
T9 construct: also called 21s
The assay is described as follows: co-expression in CHO-K1 cells; complex purified by anti-TF (IgG1) affinity and size exclusion chromatography. On the technique in general: In gel filtration, larger molecules generally elute earlier.

The target in assay [10] is T10, IL-12/IL-15RαSu/αCD16scFv fusion protein.
T10 construct: also called 12s16
The assay can be described thus: co-expression in CHO-K1 cells.

Assay [11] addresses T11, IL-18/IL-15RαSu fusion protein.
T11 construct: also called s18; 518
The assay can be described thus: co-expression in CHO-K1 cells.

Sequence of TGFβ1 (R&D systems) (P01137 279-390 limits assumed): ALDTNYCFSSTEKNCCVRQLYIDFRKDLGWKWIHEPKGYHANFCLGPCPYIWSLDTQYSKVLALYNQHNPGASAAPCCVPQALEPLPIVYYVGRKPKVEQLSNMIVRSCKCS
T8 sequence (chain, as listed by the source): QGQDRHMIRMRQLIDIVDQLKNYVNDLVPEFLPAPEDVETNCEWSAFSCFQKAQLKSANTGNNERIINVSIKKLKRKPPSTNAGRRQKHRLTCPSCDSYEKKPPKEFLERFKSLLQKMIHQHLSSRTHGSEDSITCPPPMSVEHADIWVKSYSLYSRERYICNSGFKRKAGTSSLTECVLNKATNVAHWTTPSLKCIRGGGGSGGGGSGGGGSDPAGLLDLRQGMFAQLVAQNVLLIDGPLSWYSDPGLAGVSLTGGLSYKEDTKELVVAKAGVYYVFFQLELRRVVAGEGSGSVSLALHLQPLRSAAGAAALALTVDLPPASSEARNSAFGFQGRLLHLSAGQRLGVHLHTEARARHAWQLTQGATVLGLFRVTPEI

B1: TGFR/TF/IL-15:CD16scFv/IL-15RαSu/IL-21 protein complex (other)
chain 1: IPPHVQKSVNNDMIVTDNNGAVKFPQLCKFCDVRFSTCDNQKSCMSNCSITSICEKPQEVCVAVWRKNDENITLETVCHDPKLPYHDFILEDAASPKCIMKEKKKPGETFFMCSCSSDECNDNIIFSEEYNTSNPDGGGGSGGGGSGGGGSIPPHVQKSVNNDMIVTDNNGAVKFPQLCKFCDVRFSTCDNQKSCMSNCSITSICEKPQEVCVAVWRKNDENITLETVCHDPKLPYHDFILEDAASPKCIMKEKKKPGETFFMCSCSSDECNDNIIFSEEYNTSNPDSGTTNTVAAYNLTWKSTNFKTILEWEPKPVNQVYTVQISTKSGDWKSKCFYTTDTECDLTDEIVKDVKQTYLARVFSYPAGNVESTGSAGEPLYENSPEFTPYLETNLGQPTIQSFEQVGTKVNVTVEDERTLVRRNNTFLSLRDVFGKDLIYTLYYWKSSSSGKKTAKTNTNEFLIDVDKGENYCFSVQAVIPSRTVNRKSTDSPVECMGQEKGEFRE[about 120 residues left out]
chain 2: not shown
B1: the “IC50, TGFβ1 activity in HEK-Blue TGFβ reporter cells” value with TGFβ1 (R&D systems) was 9.13 nM.

B2: TGFβRII/TF/IL-15 fusion protein (other)
chain: IPPHVQKSVNNDMIVTDNNGAVKFPQLCKFCDVRFSTCDNQKSCMSNCSITSICEKPQEVCVAVWRKNDENITLETVCHDPKLPYHDFILEDAASPKCIMKEKKKPGETFFMCSCSSDECNDNIIFSEEYNTSNPDGGGGSGGGGSGGGGSIPPHVQKSVNNDMIVTDNNGAVKFPQLCKFCDVRFSTCDNQKSCMSNCSITSICEKPQEVCVAVWRKNDENITLETVCHDPKLPYHDFILEDAASPKCIMKEKKKPGETFFMCSCSSDECNDNIIFSEEYNTSNPDSGTTNTVAAYNLTWKSTNFKTILEWEPKPVNQVYTVQISTKSGDWKSKCFYTTDTECDLTDEIVKDVKQTYLARVFSYPAGNVESTGSAGEPLYENSPEFTPYLETNLGQPTIQSFEQVGTKVNVTVEDERTLVRRNNTFLSLRDVFGKDLIYTLYYWKSSSSGKKTAKTNTNEFLIDVDKGENYCFSVQAVIPSRTVNRKSTDSPVECMGQEKGEFRE[about 120 residues left out]
notes: also called TGFRt15; TGFR/TF/IL-15
For the molecule B2, the binding result in assay [1], in assay [2], in assay [3], in assay [4] and in [5] was “binds” each time.

B3: IL-18/TF/IL-15:IL-12/IL-15RαSu protein complex (other)
chain 1: not shown
chain 2: IWELKKDVYVVELDWYPDAPGEMVVLTCDTPEEDGITWTLDQSSEVLGSGKTLTIQVKEFGDAGQYTCHKGGEVLSHSLLLLHKKEDGIWSTDILKDQKEPKNKTFLRCEAKNYSGRFTCWWLTTISTDLTFSVKSSRGSSDPQGVTCGAATLSAERVRGDNKEYEYSVECQEDSACPAAEESLPIEVMVDAVHKLKYENYTSSFFIRDIIKPDPPKNLQLKPLKNSRQVEVSWEYPDTWSTPHSYFSLTFCVQVQGKSKREKKDRVFTDKTSATVICRKNASISVRAQDRYYSSSWSEWASVPCSGGGGSGGGGSGGGGSRNLPVATPDPGMFPCLHHSQNLLRAVSNMLQKARQTLEFYPCTSEEIDHEDITKDKTSTVEACLPLELTKNESCLNSRETSFITNGSCLASRKTSFMMALCLSSIYEDLKMYQVEFKTMNAKLLMDPKRQIFLDQNMLAVIDELMQALNFNSETVPQKSSLEEPDFYKTKIKLCILLHAFRIRAVTIDRVMSYLNASITCPPPMSVEHADIWVKSYSLYSRERYICNSGFKRKAGTSSLTECVLNKATNVAHWTTPSLKCIR
notes: multi-chain chimeric polypeptide made in CHO-K1 cells, glycosylated; chains associate through IL-15 and the IL-15Rα sushi domain; also called 18t15-12s
As to B3, the binding result with human CD16b on CHO cells is given as “no binding (tested: 1.2 µg/mL)”.

B4: IL-7/TF/IL-15 fusion protein (other)
chain: DCDIEGKDGKQYESVLMVSIDQLLDSMKEIGSNCLNNEFNFFKRHICDANKEGMFLFRAARKLRQFLKMNSTGDFDLHLLKVSEGTTILLNCTGQVKGRKPAALGEAQPTKSLEENKSLKEQKKLNDLCFLKRLLQEIKTCWNKILMGTKEHSGTTNTVAAYNLTWKSTNFKTILEWEPKPVNQVYTVQISTKSGDWKSKCFYTTDTECDLTDEIVKDVKQTYLARVFSYPAGNVESTGSAGEPLYENSPEFTPYLETNLGQPTIQSFEQVGTKVNVTVEDERTLVRRNNTFLSLRDVFGKDLIYTLYYWKSSSSGKKTAKTNTNEFLIDVDKGENYCFSVQAVIPSRTVNRKSTDSPVECMGQEKGEFRE[about 120 residues left out]
notes: also called 7t15
Turning to B4, the binding result in [6], in [7], in [4], in [8] and in assay [9] was “binds” in each case.

B5: IL-18/TF/IL-15 fusion protein (other)
chain: [about 150 residues left out]SGTTNTVAAYNLTWKSTNFKTILEWEPKPVNQVYTVQISTKSGDWKSKCFYTTDTECDLTDEIVKDVKQTYLARVFSYPAGNVESTGSAGEPLYENSPEFTPYLETNLGQPTIQSFEQVGTKVNVTVEDERTLVRRNNTFLSLRDVFGKDLIYTLYYWKSSSSGKKTAKTNTNEFLIDVDKGENYCFSVQAVIPSRTVNRKSTDSPVECMGQEKGEFRE[about 120 residues left out]
notes: also called 18t15
Turning to B5, the binding result in [10] is recorded as “binds”.

B6: IL-12/TF/IL-15 fusion protein (other)
chain: IWELKKDVYVVELDWYPDAPGEMVVLTCDTPEEDGITWTLDQSSEVLGSGKTLTIQVKEFGDAGQYTCHKGGEVLSHSLLLLHKKEDGIWSTDILKDQKEPKNKTFLRCEAKNYSGRFTCWWLTTISTDLTFSVKSSRGSSDPQGVTCGAATLSAERVRGDNKEYEYSVECQEDSACPAAEESLPIEVMVDAVHKLKYENYTSSFFIRDIIKPDPPKNLQLKPLKNSRQVEVSWEYPDTWSTPHSYFSLTFCVQVQGKSKREKKDRVFTDKTSATVICRKNASISVRAQDRYYSSSWSEWASVPCSGGGGSGGGGSGGGGSRNLPVATPDPGMFPCLHHSQNLLRAVSNMLQKARQTLEFYPCTSEEIDHEDITKDKTSTVEACLPLELTKNESCLNSRETSFITNGSCLASRKTSFMMALCLSSIYEDLKMYQVEFKTMNAKLLMDPKRQIFLDQNMLAVIDELMQALNFNSETVPQKSSLEEPDFYKTKIKLCILLHAFRIRAVTIDRVMSYLNASSGTTNTVAAYNLTWKSTNFKTILEWEPKPVNQVYTVQISTKSGDWKSKCFYTTDTECDLTDEIVKDVKQTYLARVFSYPAGNVESTGSAGEPLYENSPEFTPYLETNLGQPTIQSFEQVGTKVNVTVEDERTLVRRNNTFLSLRDVFGKDLIYTLYYWKSSSSGKKTAKTNTNEFLIDVDKGENYCFSVQAVIPSRTVNRKSTDSPVECMGQEKGEFRE[about 120 residues left out]
notes: also called 12t15
On to B6, for which the binding result in assay [11] is “binds”.

B7: 7t15-TGFRs (IL-7/TF/IL-15 with TGFβ Receptor II/IL-15RαSu) (other)
chain 1: not shown
chain 2: IPPHVQKSVNNDMIVTDNNGAVKFPQLCKFCDVRFSTCDNQKSCMSNCSITSICEKPQEVCVAVWRKNDENITLETVCHDPKLPYHDFILEDAASPKCIMKEKKKPGETFFMCSCSSDECNDNIIFSEEYNTSNPDGGGGSGGGGSGGGGSIPPHVQKSVNNDMIVTDNNGAVKFPQLCKFCDVRFSTCDNQKSCMSNCSITSICEKPQEVCVAVWRKNDENITLETVCHDPKLPYHDFILEDAASPKCIMKEKKKPGETFFMCSCSSDECNDNIIFSEEYNTSNPDITCPPPMSVEHADIWVKSYSLYSRERYICNSGFKRKAGTSSLTECVLNKATNVAHWTTPSLKCIR
With B7, in the assay with TGFβ1 (R&D systems), the “IC50, TGFβ1 activity in HEK-Blue TGFβ reporter cells” value was found to be 1.14 nM.
